Experimental findings from PubChem BioAssay AID1347073 (National Center for Advancing Translational Sciences (NCATS), 2019) are described below.

Molecules are shown by their SMILES. Out of some 45,000 compounds screened, about 200 (0.44%) were called active. Roughly 7% stayed inconclusive and do not appear here. The call rests on the fitted dose curve; in most records, active means well fitted activation curve with a large enough effect; inconclusive means small, poorly fitted or top-dose-only effect; inactive means no such curve, though single readings can be large or run the other way. Some of the results follow.

This experiment in a line: qHTS of TDP-43 Inhibitors: NCGC Sytravon Library Screen. Further: 0% is about no effect; nearly all actives have a fitted effect of over 55% in size. To be noted: yeast TDP-43 toxicity rescue, BacTiter-Glo growth, 24 h; series mostly up to 46.1 µM; growth rescue (activation): at the top concentration. The essentials:
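TDP-43-expressing yeast, pregrown in raffinose, seeded at OD600 0.02 in galactose medium with compound for 24 hr at 30 deg C. Growth read by BacTiter-Glo luminescence, so rescue of toxicity appears as activation.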
Take `CN(C)c1ccc(NS(=O)(=O)c2ccc(Cl)cc2)cc1`: the “growth rescue (activation)” value is inactive: 11.6%.
Next, `NS(=O)(=O)c1ccc(NC(=O)c2cc(=O)c3ccccc3o2)cc1`: inactive: 8.85%; `COC(=O)c1sc(NC(=S)NC(=O)c2ccccc2Cl)nc1C`: inactive: 16.4%; `CCn1c2ccccc2c2cc(CN3CCN(Cc4cccc(Cl)c4)CC3)ccc21`: inactive: 10.7%.
As for `O=C(Nc1cc(S(=O)(=O)Nc2ccccc2Cl)ccc1O)c1sc2cc(Cl)ccc2c1Cl`, the “growth rescue (activation)” value was inactive: 3.81%.
`Cc1ccc(C(=O)O)cc1NC(=O)c1nsc2ccccc12`: the “growth rescue (activation)” value is inactive: 6.57%.
On to `Cc1ccc2c(c1)N(CC(=O)N1CCCCC1)C(=O)C(C)O2` (stereo not drawn), for which the “growth rescue (activation)” value was inactive: 13.7%.
Consider `CC(=O)Nc1ccc(NC(=O)[C@@H]2CCCC[C@@H]2C(=O)O)cc1`, for which the “growth rescue (activation)” value is inactive: -1.29%.
Next, `CC1CCCN(C(=O)C2CCN(S(=O)(=O)c3cccs3)CC2)C1` (stereo not drawn): inactive: 10.8%.
Regarding `Cc1c(/C(O)=C2\C(=O)C(=O)N(CCCN(C)C)C2c2ccccc2)cnn1-c1ccccc1` (stereo not drawn), the “growth rescue (activation)” value is inactive: 13.8%.
With `CCOC(=O)C1(CCOC)CCN(Cc2ccncc2)CC1`, the “growth rescue (activation)” value is inactive: -5.4%.
The result for `COc1ccc(-c2cc(=O)oc3cc(OCC(C)=O)ccc23)cc1` reads inactive: 11.7%.
Next, `COC(=O)C(CCSC)NC(=O)c1cc2c(n(-c3ccc(C)cc3)c1=O)CCCC2=O` (stereo not drawn): inactive: 12.3%; `N#CCc1c(C#N)c(N)nc(N2CCCC(O)C2)c1C#N` (stereo not drawn): inactive: -0.736%; `COc1ccccc1NC(=O)CSc1nncs1`: inactive: 0.837%.
On to `CN(C(=O)c1cc2c(s1)-c1ccccc1S(=O)(=O)C2)c1ccccc1`, for which the “growth rescue (activation)” value was inactive: 5.28%.
The result for `CC(C)C(Sc1nc(-c2ccccc2)cc(-c2ccccc2)c1C#N)C(=O)O` (stereo not drawn) reads inactive: 13.7%; that for `O=C(Nc1ccc(NC(=O)c2sc3ccccc3c2Cl)cc1)c1ccco1`, inactive: 0.205%; that for `O=C(Nc1ccccc1)Nc1ccc(Cl)c(S(=O)(=O)N2CCOCC2)c1`, inactive: 5.93%.
`COc1ccc(CN(C)C(=O)CCN2C(=O)c3ccccc3C2=O)c(OC)c1OC`: the “growth rescue (activation)” value is inactive: 8.03%.
As to `Cc1c(Cl)cccc1NC(=O)C1CC(=O)N(C2CCCC2)C1` (stereo not drawn), the “growth rescue (activation)” value is inactive: -1.12%.
The result for `COc1ccc(/C=C2\SC(=O)N(CCNC(=O)CCS(=O)(=O)c3ccc(C)cc3)C2=O)cc1` reads inactive: 1.15%; that for `COc1cc(Cn2c(C(=O)O)cc3sccc32)cc(OC)c1OC`, inactive: 8.55%.
Consider `CC(C)c1ccc(NC(=O)C2Cc3c(-c4ccccc4Oc4ccccc4)ccnc3O2)cc1` (stereo not drawn), for which the “growth rescue (activation)” value was inactive: 3.1%.
In the case of `O=C(Nc1ccccc1)c1ccc(=O)[nH]n1`, the “growth rescue (activation)” value was inactive: -7.49%.
Next, `COCCCNC(=S)N(CCO)Cc1cc2cc3c(cc2[nH]c1=O)OCO3`: inactive: -3.6%.
With `Cc1cccc(/C=N/NC(=O)c2cccc(Cl)c2)n1`, the “growth rescue (activation)” value was inactive: 14.3%.
As for `CCn1c(=N)n(CC(=O)c2ccc(Cl)c(Cl)c2)c2ccccc21`, the “growth rescue (activation)” value was inactive: 16.3%.
With `Cc1cc(NC(=O)CS(=O)(=O)c2cn(Cc3cccc(F)c3)c3ccccc23)no1`, the “growth rescue (activation)” value was inactive: -1.26%.
Turning to `CCNc1nc(Oc2ccc(OC)cc2)cc(C(F)(F)F)n1`, the “growth rescue (activation)” value was inactive: 17.2%.
Next, `CCSC1=C(C#N)C2(CCCCC2)C2=C(CC(C)(C)CC2=O)N1`: inactive: 10.6%; `CC(=O)Nc1sc(NC(=O)c2ccc(Cl)cc2)nc1-c1cccs1`: inactive: 26.5%.
`NNC(=O)CSc1c(-c2ccccc2)c2cc(Cl)ccc2[nH]c1=O`: the “growth rescue (activation)” value was inactive: -7.12%.
On to `CCOC(=O)CCn1c(=O)c2c(nc(Br)n2Cc2ccccc2)n(C)c1=O`, for which the “growth rescue (activation)” value was inactive: -27%.
As to `CCCC(C(=O)NCCc1ccc(S(N)(=O)=O)cc1)c1ccccc1` (stereo not drawn), the “growth rescue (activation)” value was inactive: 16.1%.
Turning to `COc1ccc(NC(=O)C2(C)CCN2Cc2ccc3ccccc3c2)cc1OC` (stereo not drawn), the “growth rescue (activation)” value is inactive: -6.76%.
Regarding `CCOC(=O)C1CCN(C(=O)COc2ccc(C(=O)c3ccccc3)cc2)CC1`, the “growth rescue (activation)” value was inactive: 5.73%.
Turning to `Cc1cc(C)nc(SCC(=O)NN)n1`, the “growth rescue (activation)” value was inactive: 12.8%.
As to `Cc1cc(C)c(C(=O)Nc2ccc(S(=O)(=O)Nc3ccccn3)cc2)c(C)c1`, the “growth rescue (activation)” value was inactive: 9.31%.
Consider `CC(C)c1cccc(C(C)C)c1NC(=O)COC(=O)c1ccc2c(c1)S(=O)(=O)c1ccccc1C2=O`, for which the “growth rescue (activation)” value was inactive: -21.8%.
As for `Cc1ccc(S(=O)(=O)N2CCC(C(=O)NC3CC(C)(C)NC(C)(C)C3)CC2)cc1`, the “growth rescue (activation)” value is inactive: -8.71%.
Turning to `COc1ccc(NC(=O)C2(C)CCN2C(=O)C(C)C)cc1F` (stereo not drawn), the “growth rescue (activation)” value was inactive: 11.8%.
The result for `CC1CN(C(C)C(=O)NNC(=O)c2ccc(F)cc2)CC(C)O1` (stereo not drawn) reads inactive: -10%; that for `COC(=O)c1ccc(OC(C)C(=O)c2ccc(C)cc2)cc1` (stereo not drawn), inactive: 6.63%; that for `CCc1cccc(Nc2cnn(C34C[C@@H]5C[C@@H](CC(CC(=O)O)(C5)C3)C4)c(=O)c2Cl)c1`, inactive: 2.39%.
For the molecule `Cc1ccc(CCNC(=O)C23C[C@H]4C[C@@H](C2)CC(n2nnc(C)n2)(C4)C3)cc1`, the “growth rescue (activation)” value was inactive: 1.1%.
Consider `Cc1ccccc1N1CCN(C2CCCN(C(=O)c3ccnn3C)C2)CC1` (stereo not drawn), for which the “growth rescue (activation)” value is inactive: -29.4%.
For `CC(C)C(C)NC(=O)CN1C(=O)NC2(CCCc3ccccc32)C1=O` (stereo not drawn), the “growth rescue (activation)” value is inactive: -5.43%.
Consider `CCOC(=O)C1(Cc2ccccc2)CCCN(Cc2ccc(OCCO)cc2)C1` (stereo not drawn), for which the “growth rescue (activation)” value was inactive: 5.47%.
As for `O=C(CP(=O)(c1ccccc1)c1ccccc1)N1CCOCC1`, the “growth rescue (activation)” value is inactive: -15.5%.
The result for `C/C(=N/NC(=O)COc1ccc(C(C)(C)C)cc1)c1ccc(N2CCOCC2)cc1` reads inactive: 12.7%; that for `CC(=O)c1c(C)[nH]c(C(=O)CN2CCN(S(=O)(=O)c3ccccc3F)CC2)c1C`, inactive: 20.9%.
Next, `O=C(CCn1c(=O)c2sccc2n(Cc2ccc(F)cc2Cl)c1=O)NCc1ccc2c(c1)OCO2`: inactive: 0.706%; `CCc1ccc(C(C)NC(=O)c2ncn[nH]2)cc1` (stereo not drawn): inactive: 3.99%.
Take `Cc1c(NC(=O)c2cc3c(s2)CCCC3)c(=O)n(-c2ccccc2)n1C`: the “growth rescue (activation)” value is inactive: 11.6%.
For `CC1CCN(C(=O)COC(=O)c2cccs2)CC1`, the “growth rescue (activation)” value is inactive: -6.44%.
Take `NS(=O)(=O)c1ccc(CCNC(=O)CNCCc2ccccc2)cc1`: the “growth rescue (activation)” value is inactive: -0.384%.
Take `CN(C)C(CNC(=O)c1cccc(OC(F)F)c1)c1ccco1` (stereo not drawn): the “growth rescue (activation)” value is inactive: -11.1%.
Consider `CCOc1ccc2nc(SCC(=O)NNC(=O)c3ccco3)c(C)cc2c1`, for which the “growth rescue (activation)” value was inactive: -0.386%.
The result for `COc1ccc(NC(=O)C2(C)Cc3c(-c4cccc(C(N)=O)c4)ccnc3O2)cc1` (stereo not drawn) reads inactive: 11.6%; that for `COc1ccc(Nc2c3c(nc4nncn24)CCC3)cc1OC`, inactive: 16.7%; that for `CCN(CC)S(=O)(=O)c1cc(NC(=O)Cc2ccsc2)ccc1C`, inactive: -2.32%.
Turning to `CCCn1c(SCC(=O)Nc2cc(Cl)ccc2Cl)n[nH]c1=O`, the “growth rescue (activation)” value was inactive: 15.1%.
The result for `CCn1ncc(NC(=S)NCCc2ccccc2)c1C(N)=O` reads inactive: 2.63%; that for `Cc1ccc(Nc2nc(NCc3cccs3)nc3ccsc23)c(C)c1`, inactive: 7.93%; that for `O=C(CN(C(=O)CNS(=O)(=O)c1ccc(F)cc1)c1cccc(F)c1)NCC1CCCO1` (stereo not drawn), inactive: 9.57%.
Take `CC(C)n1c(NCc2c[nH]c3ccccc23)nc2ccccc21`: the “growth rescue (activation)” value is inactive: 13.2%.
Regarding `NC(=O)c1ccsc1NC(=O)CSc1nnc(Nc2ccccc2)s1`, the “growth rescue (activation)” value is inactive: 5.73%.
